Measurements taken from PubChem BioAssay AID1240 (Sanford-Burnham Center for Chemical Genomics, 2008).
Hit rate of the full screen: of about 50,000 compounds, about 800 (1.6%) showed an effect of 50% or more. This is one part of the list.

Each compound was assayed against Bcl-2-like protein 10 (Homo sapiens) (UniProt Q9HD36) (assay: TR3 peptide-Bcl-B binding displacers, biochemical primary FP assay, phenotype converters (AID 1240;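 also: 0% = Bcl-B with tracer peptide and DMSO and 100% = tracer peptide lacking Bcl-B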)). Conditions: GST-Bcl-B / FITC-TR3 peptide fluorescence polarization; stronger effect = higher value; compound at 3.75 mg/L.
Sequence of UniProt Q9HD36 (Q9HD36 whole entry, looked up): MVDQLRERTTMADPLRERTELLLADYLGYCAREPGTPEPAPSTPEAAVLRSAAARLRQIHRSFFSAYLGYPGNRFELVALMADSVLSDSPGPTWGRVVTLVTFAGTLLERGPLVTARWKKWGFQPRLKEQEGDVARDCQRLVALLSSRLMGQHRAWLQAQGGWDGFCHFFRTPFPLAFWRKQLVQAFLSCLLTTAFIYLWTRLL

Going from O=C(NC(=S)N1CCOCC1)c1ccc(Cl)cc1Cl to O=C(Nc1ccc(C(=O)N2CCOCC2)cc1)c1c(Cl)cccc1Cl, the displacement rises from 3.2% to 3.9%.

Going from O=C1CC(=O)N(c2ccc(Br)cc2)N1 to CC1=C(C(=O)OCCc2ccccc2)C(c2ccc(Br)cc2)C2=C(CCCC2=O)N1 (stereo not given), the displacement falls from 17.7% to -10.6%.

Compared with CCN(CC)CCP(=O)(c1ccccc1)c1ccccc1, O=C(NCCCc1ccccc1)c1cc2ccccc2oc1=O is higher in displacement: -1.3% for the first, 3.1% for the second.

Going from O=C(Nc1ccccc1C(F)(F)F)c1ccc(-c2cc(Cl)ccc2Cl)o1 to O=C(Nc1ccc(Oc2ccccc2)cc1)c1ccc(Cl)cc1Cl, the displacement falls from -4.6% to -9.4%.

Going from O=C1c2[nH]nc(-c3ccccc3)c2C(c2ccccc2F)N1c1ccccc1 (stereo not given) to Cc1ccc(N2C(=O)c3ccccc3NC2c2ccccc2F)cc1 (stereo not given), the displacement rises from -3.9% to 8%.

Going from O=C(Nc1ccccc1C(=O)Nc1ccc(Cl)cc1)c1ccc([N+](=O)[O-])cc1 to O=C(Nc1ccc(NC(=O)c2ccc(Cl)cc2Cl)cc1)c1ccccc1, the displacement falls from 4% to 1.2%.

Compared with Cc1ccc(/C=C/C(=O)Nc2cccc3cccnc23)o1, Cc1c(Cl)cccc1NC(=O)/C=C/c1ccccc1Cl is lower in displacement: 91.4% for the first, 16.8% for the second.

First: COc1ccc(C(=O)N2CCN(C(=O)c3cccs3)CC2)cc1
Second: O=C(c1cccs1)N1CCN(Cc2ccncc2)CC1
The displacement of the first is lower: -12.3% for the first, -1.6% for the second.

First: C=CCN1C(=O)C(Cc2ccc(F)cc2)S/C1=N\N=C\c1ccco1 (stereo not given)
Second: CCOc1ccc(Oc2cc(NC(=O)c3ccco3)cc([N+](=O)[O-])c2)cc1
The displacement of the first is higher: 8.1% for the first, -4% for the second.

Going from Cc1ccc(NC(=S)NC(=O)/C=C/c2ccccc2)cc1C to CC(=O)c1cccc(NC(=O)/C=C/c2ccccc2Cl)c1, the displacement rises from 0.3% to 13.7%.

First: CC(=O)N1c2ccccc2NC2=C(C(=O)CC(c3ccccc3)C2)C1c1ccccc1Cl (stereo not given)
Second: O=C1CCCC2=C1C(c1ccc(Cl)cc1)Nc1ccccc1N2 (stereo not given)
The displacement of the first is lower: -12% for the first, -5.7% for the second.

First: CC1=CC(c2ccccc2)n2c(nc3ccccc32)N1 (stereo not given)
Second: Cc1c(C#N)c(N)c(C(=O)c2ccccc2)n1-c1ccccc1
The displacement of the first is higher: 13.1% for the first, 9.8% for the second.

Going from O=C1C2C(C(=O)N1c1cccc(Cl)c1)N1CCCN1C2c1ccccc1 (stereo not given) to O=C(c1cc2ccccc2oc1=O)N1CCN(c2ccccc2)CC1, the displacement rises from 2.6% to 4.4%.

Compared with CN(C)CC(O)CN1C(=O)N(CN2C(=O)N(CC(O)CN(C)C)C(=O)C2(C)C)C(C)(C)C1=O (stereo not given), CC(C)Cn1cc(F)c(=O)n(CC(C)C)c1=O is higher in displacement: -11% for the first, 9.8% for the second.

Going from O=c1oc2cc(OCc3ccc(Cl)cc3)ccc2c2c1CCCC2 to O=C(COc1ccc2ccc(=O)oc2c1)c1ccc(Cl)cc1, the displacement rises from -4.7% to 6.8%.

First: O=C(Nc1c(F)c(F)c(F)c(F)c1F)c1cccs1
Second: CCOc1ccc(NC(=O)c2ccccc2NC(=O)c2cccs2)cc1
The displacement of the first is higher: 2.8% for the first, 1.9% for the second.

Compared with CCOC(=O)c1c(NC(=O)c2cccc([N+](=O)[O-])c2)sc2c1CCC(CC)C2 (stereo not given), CCOC(=O)Nc1sc2c(c1C(N)=O)CCC(C)C2 (stereo not given) is lower in displacement: 2.8% for the first, -4.4% for the second.

Compared with CCOc1ccc(NC(=O)CN(c2ccc(C)cc2)S(=O)(=O)c2ccc(SC)cc2)cc1, COc1cccc(NC(=O)CN(c2ccc(C)c(Cl)c2)S(C)(=O)=O)c1 is lower in displacement: 11.6% for the first, 3.3% for the second.

First: COc1ccc(-c2cccc(=O)o2)cc1
Second: COc1ccc(/C=C2/Sc3ccccc3C2=O)cc1
The displacement of the first is lower: 13.4% for the first, 14.5% for the second.

First: CCOC(=O)C1=CN(c2ccc(OCC)cc2)C=C(C(=O)OCC)C1c1ccc(OC)cc1
Second: COc1ccc(OCC(=O)NCCNC(=O)COc2ccc(OC)cc2)cc1
The displacement of the first is lower: 1.2% for the first, 4.5% for the second.

First: CCN(CC)CCCCOc1c(C)ccc(C)c1C
Second: Cc1cc(C)c(OCCCN2CCOCC2)c(C)c1
The displacement of the first is higher: 17.4% for the first, 1.3% for the second.

Going from COc1cc2c(cc1NC(=O)c1ccc(OC)c([N+](=O)[O-])c1)oc1ccccc12 to COc1ccc(-c2cc(C(=O)Nc3cccc(C(C)=O)c3)c3ccccc3n2)cc1OC, the displacement rises from -9.6% to 4.1%.

Compared with COC(=O)CN(c1ccc(C)cc1)S(C)(=O)=O, COc1ccc(OC)c(N(CC(=O)NC(C)C)S(C)(=O)=O)c1 is higher in displacement: 5.3% for the first, 11.6% for the second.

First: NC(=O)c1ccc(C(=O)c2ccc(N)cc2)cc1N
Second: C/C(=C\C(=O)c1ccc(Cl)cc1)Nc1ccc(Br)c(C)c1
The displacement of the first is lower: -1.2% for the first, 4.4% for the second.

First: O=C(NCC1CCCO1)c1nn2c(c1Br)NC(c1cccs1)CC2C(F)(F)F (stereo not given)
Second: O=C(NCc1cccnc1)c1nn2c(c1Cl)NC(c1cccs1)CC2C(F)(F)F (stereo not given)
The displacement of the first is higher: -0.6% for the first, -2.7% for the second.

First: Clc1ccc(C(Sc2ncn[nH]2)c2ccccc2)cc1 (stereo not given)
Second: O=C(Nc1ccccc1)Nc1nnc(-c2ccc(Cl)cc2)s1
The displacement of the first is higher: 17.4% for the first, 16.1% for the second.

Going from CC(=O)Oc1ccc(/C=C2\C=C(c3ccc(C)cc3)OC2=O)cc1 to Cc1ccc(SCCOc2ccc(/C=C3/SC(=S)N(C)C3=O)cc2)cc1, the displacement falls from 34.5% to 16.5%.

First: COC(=O)CSC1=NC(=O)/C(=C/c2cccc(OC)c2)S1
Second: CCOc1ccc(C(=O)Nc2cccc(OC)c2)cc1Br
The displacement of the first is lower: -11.3% for the first, 5.7% for the second.

Compared with CCc1ccc(NC(=O)C(=O)NCCN2CCOCC2)cc1, Cc1cccc(NC(=O)C(=O)NCCc2ccc(Cl)cc2)c1 is higher in displacement: 2.1% for the first, 12.1% for the second.

Going from O=c1nc(-c2ccccc2F)c2cc(Cl)ccc2[nH]1 to Cc1ccc2[nH]c(C)c(CN(C)Cc3ccccc3)c(=O)c2c1, the displacement falls from 6.9% to -15.8%.

Going from N#Cc1ccccc1OCC(=O)N/N=C/c1ccccc1 to O=C(COc1ccc2ccccc2c1)Nc1cccc2ccccc12, the displacement falls from 5.9% to 0.2%.

First: O=C(c1ccc(Cl)cc1)N1N=C(c2ccc(Cl)cc2)CC1(O)C(F)(F)F (stereo not given)
Second: O=C(NCc1ccc(Cl)cc1)C1CCCN1S(=O)(=O)c1ccc(Cl)cc1 (stereo not given)
The displacement of the first is higher: 5.2% for the first, 0.5% for the second.

Compared with O=C(Nc1ccc(-c2nc3ccccc3c(=O)o2)cc1)c1ccc(Cl)cc1, O=C(Nc1ccc(O)cc1)Nc1ccc(Cl)cc1 is lower in displacement: 10.6% for the first, -1.5% for the second.

Going from CCCCn1c2ccccc2n2c(C(=O)OC)c(C)nc12 to Cc1onc(-c2ccccc2Cl)c1C(=O)NCC#N, the displacement rises from -0.9% to 7.9%.

Compared with CC1CCN(c2nc(-c3ccccc3O)nc3ccccc23)CC1, CCC(=O)Nc1ccccc1C(=O)N1CCN(Cc2ccccc2)CC1 is lower in displacement: 7.4% for the first, 1.9% for the second.

Going from Cc1cc(C)n(C(=O)c2cc(=O)[nH]c3ccccc23)n1 to Cc1cc(C)n(CC(=O)n2nc(C)cc2C)n1, the displacement rises from 2.4% to 2.6%.

First: CCOc1ccc(CC(C(=O)NC)C(=O)NC)cc1CN(C)C
Second: COc1ccc(C)cc1CCC(=O)O
The displacement of the first is lower: -21% for the first, 7.4% for the second.

Going from Cc1ccc(-c2nc3ncccc3o2)cc1NC(=O)c1ccc(Br)o1 to COc1ccc2oc(=O)c(C(=O)Nc3ccccc3C(=O)O)cc2c1, the displacement rises from -4.6% to 16.9%.

Going from CCOc1cccc(C2CC(=O)Nc3c2cc(Br)c2ccccc32)c1 (stereo not given) to O=[N+]([O-])c1cccc(-c2noc(COc3ccc4ccccc4c3)n2)c1, the displacement rises from -7.4% to 2.7%.

First: CS(=O)(=O)N(Cc1ccc(Cl)cc1)c1ccc(C(=O)N2CCN(c3ccccc3)CC2)cc1
Second: Cc1cccc(C)c1NC(=O)c1ccc(CN2CCc3ccccc3C2)cc1
The displacement of the first is lower: -35.5% for the first, 11.7% for the second.

Compared with COc1ccc2c(c1)C(NC(=O)C(F)(F)F)CC2=O (stereo not given), COc1ccc(CC(=O)Nc2cccc(F)c2)cc1OC is lower in displacement: 13.2% for the first, 3.9% for the second.

Compared with CC(C)Oc1ccccc1NC(=O)c1cc(F)c(F)cc1Cl, Cc1occc1C(=O)Nc1ccccc1Cl is higher in displacement: -6.8% for the first, 5% for the second.

First: CCOC(=O)N1CCN(c2ccc(C(=O)CC)cc2F)CC1
Second: O=C(c1ccccc1F)N1CCN(CCCc2ccccc2)CC1
The displacement of the first is higher: -12.7% for the first, -24.8% for the second.

First: CC1=NN(C(=O)OC(C)(C)C)C(O)(c2ccc(C)cc2)C1 (stereo not given)
Second: CC1(C)CC(=O)C(Sc2ccc([N+](=O)[O-])cc2)=C(O)C1
The displacement of the first is lower: 12.6% for the first, 17% for the second.

Compared with Cc1cc(C(=O)Nc2ccccc2C(=O)O)ccc1NC(=O)CC(C)C, CC(=O)Nc1ccc(NC(=O)CN2C(=O)c3ccccc3C2=O)cc1 is lower in displacement: 1.4% for the first, -1.5% for the second.

Going from CN(C)c1ccc(NC(=O)c2ccc(I)cc2)cc1 to CN(C)c1ccc(NC(=O)c2cccnc2)cc1, the displacement falls from 6.9% to 3.5%.

Going from N#CCCC1(CCC#N)c2ccccc2-c2ncccc21 to O=C(COc1ccc2ccccc2c1)N1CCCC1, the displacement falls from -4.2% to -10.1%.

First: O=C1/C(=C\c2cc(Cl)c(O)c(Cl)c2)SC(=S)N1Cc1ccccc1
Second: CC(c1ccccc1)N1C(=O)/C(=C/c2cccc([N+](=O)[O-])c2)SC1=S (stereo not given)
The displacement of the first is lower: -20.1% for the first, -9% for the second.

Going from NNC(=O)c1n[nH]c2c1CCCCCCCCCC2 to CSc1nc2sc3c(c2c(=O)[nH]1)CCCC3, the displacement rises from -28.4% to 6.2%.

Going from N=c1sc(Cc2cccc(Cl)c2)cn1CC(=O)c1ccccc1 to O=C(O)c1ccccc1/C=C1\SC(=S)N(c2cccc(C(F)(F)F)c2)C1=O, the displacement falls from -6.7% to -12%.

Compared with O=C(N/N=C/c1ccc(Cl)cc1)c1cc(C2CC2)[nH]n1, O=C(N/N=C/c1ccc(Sc2nnnn2-c2ccccc2)o1)c1ccccc1O is lower in displacement: -3.3% for the first, -7.9% for the second.

Compared with Clc1ccc(Cc2noc(-c3cccs3)n2)cc1, O=C(Nc1ccc(Cl)cc1)Nc1nnc(C23CC4CC(CC(C4)C2)C3)s1 is higher in displacement: -15.6% for the first, 6.7% for the second.

First: CN(C(=O)C12CC3CC(CC(C3)C1)C2)C1CCS(=O)(=O)C1 (stereo not given)
Second: COc1cc(C2Nc3ccc(C(=O)c4ccccc4)cc3NC3=C2C(=O)CCC3)cc(OC)c1OC (stereo not given)
The displacement of the first is higher: -9.7% for the first, -10.6% for the second.

Going from COCCNC(=O)c1ccc([N+](=O)[O-])cc1Cl to COC(=O)CNC(c1ccccc1)c1cc(Br)ccc1NS(=O)(=O)c1ccccc1 (stereo not given), the displacement falls from 1.6% to 0.4%.

Going from C#CCOc1ccc(C=C2C(=O)NC(=S)NC2=O)cc1Br to CCc1cc(=O)oc2cc(C)cc(OC(C)=O)c12, the displacement rises from -17% to 11.4%.

First: COc1cc2c(c(OC)c1OC)c(=O)oc1cc(O)ccc12
Second: N#C/C(=C/c1ccc(O)cc1)C(=O)Nc1cccc(Br)c1
The displacement of the first is higher: 5% for the first, -32.7% for the second.

Compared with OC(c1ccccc1)(c1ccccc1)c1ccnn1-c1ccccc1, COc1cccc(CN2CCN(C(=O)C(c3ccccc3)c3ccccc3)CC2)c1 is lower in displacement: 2.6% for the first, -8.9% for the second.

For CC(C)(C)c1ccc(OCC(=O)NC(=S)Nc2ccc(NC(=O)c3ccco3)cc2)cc1, the displacement was -6.4%.
